Out of some 410,000 compounds screened, about 6,400 (1.6%) were called active. This list was built around the results that the source calls inconclusive (neither active nor inactive); the mix of calls is not that of the screen. Calls follow the shape of the dose curve; as a rule, active = well fitted inhibition curve with a large enough effect; inconclusive = small, poorly fitted or top-dose-only effect; inactive = no such curve, though single readings can be large or run the other way. Potencies beside an inconclusive call are fits to weak or partial responses and may not hold up.
The molecules below were run against Glucagon-like peptide 1 receptor (Homo sapiens) (UniProt P43220) (assay: qHTS of GLP-1 Receptor Inverse Agonists (Inhibition Mode)). Conditions: HEK293 GLP-1R CRE-luciferase, luminescence, 24 h, GLP-1R form is constitutively active; activity change, negative = inhibition: at 38.3 µM (top of the series) unless noted.
Summary of the method: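 Readout was luciferase luminescence, measured 12 min after detection reagent at room temperature. Beforehand, GLP-1R reporter HEK293 cells had sat 12 h, then received compounds for 24 hr at 37 deg C.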
% is scaled to controls: 0 for no effect and ±100 for the full control effect; potency is read from the fitted curve at half-maximal effect; tags tell the direction and shape of the fitted curve.
Also: nearly all actives have a fitted effect of over 55% in size.

Sequence of UniProt P43220 (P43220 whole entry, looked up): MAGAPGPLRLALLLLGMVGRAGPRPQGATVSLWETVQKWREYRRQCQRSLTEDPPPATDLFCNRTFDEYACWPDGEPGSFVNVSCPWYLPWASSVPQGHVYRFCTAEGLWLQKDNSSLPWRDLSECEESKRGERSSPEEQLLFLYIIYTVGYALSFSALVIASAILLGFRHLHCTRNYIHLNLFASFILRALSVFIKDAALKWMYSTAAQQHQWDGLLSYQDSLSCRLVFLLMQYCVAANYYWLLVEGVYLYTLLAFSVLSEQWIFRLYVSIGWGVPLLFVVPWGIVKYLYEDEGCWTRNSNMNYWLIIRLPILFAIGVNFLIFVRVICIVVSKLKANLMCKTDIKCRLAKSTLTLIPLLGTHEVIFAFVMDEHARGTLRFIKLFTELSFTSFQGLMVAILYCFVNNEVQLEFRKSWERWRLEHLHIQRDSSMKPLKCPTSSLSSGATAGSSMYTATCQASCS

Potency, inconclusive:
Cc1c(C)c(C)c2[nH]c(-c3ccc4c(c3)OCO4)nc2c1C 10 µM [inhibitor, partial curve, poor fit]
CC1CC(NC(=O)CCn2c(=O)oc3ccccc32)CC(C)(C)C1 (stereo unspecified) 28.2 µM [inhibitor, single point]
NNC(=O)CCCCCCCCCCOCCCCO 8.91 µM [inhibitor, partial curve]
Cc1ccc(NC(=O)c2noc3c2CCC3)cc1C 12.6 µM [inhibitor, single point]
COC(=O)c1cccc(CN2C(=O)C(C)Sc3ccc(C)cc32)c1 (stereo unspecified) 10 µM [inhibitor, partial curve, poor fit]
CCOC(=O)Nc1nc(-c2ccccc2)c(C(=O)c2ccc(Cl)cc2)s1 1.12 µM [inhibitor, full curve, poor fit]
Cc1cc(C)cc(NC(=O)N2CCNC(=O)C2CC(=O)Nc2cc(Cl)ccc2Cl)c1 (stereo unspecified) 11.2 µM [inhibitor, partial curve, poor fit]
COc1ccc(N2CC(NC(=O)/C=C\c3ccc4c(c3)OCO4)CC2=O)cc1 (stereo unspecified) 10 µM [inhibitor, single point]
Cc1cc(C)c(S(=O)(=O)c2ccccc2C)c(OCC(C)(C)C)n1 11.2 µM [inhibitor, partial curve]
COC(=O)CC1COc2ccccc2N1S(=O)(=O)c1ccc(OC)cc1 (stereo unspecified) 5.01 µM [inhibitor, partial curve]
CCOC(=O)c1scc(-c2ccccc2)c1S(=O)(=O)Nc1ccc(N(C)C)cc1 22.4 µM [inhibitor, single point]
O=C(O)CSCC(=O)NCc1ccc(Cl)cc1Cl 17.8 µM [inhibitor, partial curve, poor fit]
CCN(CC)c1ccc(-n2c(C)c(C(C)=O)c(C(C)=O)c2C)cc1 11.2 µM [inhibitor, partial curve, poor fit]
CCOC(=O)c1c(NC(=O)COc2ccccc2F)sc2c1CC(C)(C)NC2(C)C 3.16 µM [inhibitor, full curve]
CCCCCC(=O)N1C[C@@H](n2cc(C3CC3)nn2)[C@H](O)C[C@@H]1c1ccc(Cl)cc1 10 µM [inhibitor, single point]
O=C(CSc1nnnn1C1CCCC1)N1CCCc2ccccc21 28.2 µM [inhibitor, single point]
CCOc1ccc(N2CC(c3nc4ccccc4n3CCCOc3ccccc3OC)CC2=O)cc1 (stereo unspecified) 31.6 µM [inhibitor, single point]
COCCNc1nc(NCCNC(C)=O)c2sc(-c3ccccc3)cc2n1 28.2 µM [inhibitor, single point]
CCc1nnc(SCc2cccc(F)c2)c2cc3sc(C)cc3n12 28.2 µM [inhibitor, single point]
COc1cccc(-c2nn(-c3ccccc3)cc2CO)c1 28.2 µM [inhibitor, single point]
O=C(COc1ccccc1)Nc1ccc(-c2ccc(N3CCOCC3)nn2)cc1 4.47 µM [inhibitor, full curve]
OC(CSc1ccccc1)CN1CCN(c2ccc(Cl)cc2)CC1 (stereo unspecified) 11.2 µM [inhibitor, partial curve, poor fit]
CC(O)C(NS(=O)(=O)c1ccc(Cl)cc1)C(=O)OCCOc1ccc(F)cc1 (stereo unspecified) 10 µM [inhibitor, partial curve, poor fit]
O=C(N[C@H]1C/C=C\C[C@H](CC(=O)N(CCO)Cc2ccccc2)C(=O)N[C@H](Cc2c[nH]c3ccccc23)COC1=O)OCC1c2ccccc2-c2ccccc21 2.82 µM [inhibitor, partial curve, poor fit]
CC(C)CC1CC(C)(c2csc(NNC(=O)c3ccccc3)n2)OC1=O (stereo unspecified) 10 µM [inhibitor, partial curve, poor fit]
CCc1ccc(NC(=O)C[n+]2cc(-c3ccc(C)cc3)n3c2CCC3)cc1 12.6 µM [inhibitor, partial curve, poor fit]
O=C(C1=COCCO1)N1CCN(S(=O)(=O)c2cccc(Cl)c2Cl)CC1 10 µM [inhibitor, single point]
Cc1sc2ncnc(SCC(=O)Nc3ccc(CN4CCCC4)cc3)c2c1C 28.2 µM [inhibitor, single point]
Cc1ccc(NC(=S)N(CCCN2CCCC(C)C2)Cc2ccco2)cc1C (stereo unspecified) 10 µM [inhibitor, partial curve, poor fit]
COc1ccc(Br)cc1Cn1nnc(C(=O)Nc2ccc(C)cc2C)c1N 14.1 µM [inhibitor, single point]
CC(=O)COc1ccc2cc(-c3ccccc3)c(=O)oc2c1 14.1 µM [inhibitor, single point]

Potency, active:
Clc1ccc(Cn2nc(-c3ccccc3)nc2-c2ccccc2)cc1 7.94 µM
CCOc1cc(C(=O)Nc2ccc3nc(Nc4cccc(Cl)c4)cc(C)c3c2)cc(OCC)c1OCC 5.62 µM
Cc1ccc(Nc2c(-c3ccccc3O)nc3ncccn23)cc1 10 µM

Activity change, negative = inhibition, inactive:
CC(C)C(c1nnnn1C(C)(C)C)N1CCC(Cc2ccccc2)CC1 (stereo unspecified) 13.1%
CC1Cc2[nH][nH]c(=O)c2C(C2CC2)O1 (stereo unspecified) 5.46%
COCCCNC(=O)c1ccc(Cn2c(=O)c3ccccc3n(CC(=O)Nc3c(C)cccc3C)c2=O)cc1 -0.649%
Cc1cccc(-n2c(-c3ccco3)n[nH]c2=S)c1 26.9%
CCS(=O)(=O)N1CC(=O)N(c2ccc(Cl)cc2C)C(C)(C(=O)NC2CCCCCC2)C1 (stereo unspecified) 11.5%
Cc1ccc(C)n1NC(=O)c1ccccc1Cl 5.6%
COc1ccc2c(Sc3ccccc3)c(C(=O)NCC(C)c3ccccc3)[nH]c2c1 (stereo unspecified) 5.22%

Source: PubChem BioAssay AID624417 (National Center for Advancing Translational Sciences (NCATS), 2012)
